“And” between values parts separate entries of the source, which are not always exact repeats. Equal entries are not always repeated. Screen size: about 310,000 compounds; about 18,000 (5.8%) were called active. Inconclusive means that the source gave no clear call. Such entries were picked first, then a sample of the others. Calls follow the shape of the dose curve; as a rule, active = well fitted inhibition curve with a large enough effect; inconclusive = small, poorly fitted or top-dose-only effect, or another doubt; inactive = no such curve, though single readings can be large or run the other way. Potencies of inconclusive entries are doubtful fits and often do not repeat.
Experiment: Primary qHTS for delayed death inhibitors of the malarial parasite plastid, 48 hour incubation
Details: P. falciparum luciferase growth in erythrocytes; series mostly up to 28.7 µM; activity change, negative = inhibition: at the top concentration
How it was run: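 Read-out is firefly luciferase luminescence from an integrated reporter in P. falciparum, so falling signal marks reduced parasite growth. Infected erythrocytes were at 2% hematocrit and 0.1% parasitemia (final) in Albumax-supplemented RPMI 1640.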
% is scaled to controls: 0 for no effect and ±100 for the full control effect; potency is read from the fitted curve at half-maximal effect; tags tell the direction and shape of the fitted curve.

Row | SMILES | Potency | activity change, negative = inhibition
1 | COc1ccc(S(=O)(=O)N2CCCC2CNC(=O)C(=O)NCc2ccccc2Cl)cc1 (centres undefined) | inconclusive: 13.1 µM [inhibitor, partial curve] | 
2 | COC(=O)c1ccc(C(=O)OC)c(NC(=S)N2CC(C)CC(C)C2)c1 (centres undefined) | inconclusive: 13.1 µM [inhibitor, single point] | 
3 | CN(C)S(=O)(=O)c1cccc(NC(=O)COC(=O)c2c[nH]c(=O)[nH]c2=O)c1 |  | inactive: -2.72%
4 | COc1ccc(Cl)cc1C(=O)C1CCCN(CCO)C1 (centres undefined) | inconclusive: 18.5 µM [inhibitor, single point] | 
5 | CC(=O)Nc1ccc(NC(=O)c2ccccc2S(=O)(=O)c2ccccc2[N+](=O)[O-])cc1 |  | inactive: -0.693%
6 | COc1ccc(N(Cc2cc3cccc(C)c3[nH]c2=O)S(=O)(=O)c2ccc(Cl)cc2)cc1 | inconclusive: 2.33 µM [inhibitor, full curve] | 
7 | CC(=O)NC(Cc1ccc(C(C)C)cc1)C(=O)NC1CCN(c2nc(C)cc(C)n2)CC1 (centres undefined) | inconclusive: 7.38 µM [inhibitor, partial curve, poor fit] | 
8 | COc1ccc(CCNC(=O)CSc2nc(-c3ccc(OC)c(OC)c3)ccc2C#N)cc1 | inconclusive: 8.28 µM [inhibitor, partial curve] | 
9 | CC1CCc2c(nc3ncnn3c2NCCc2ccccc2F)C1 (centres undefined) | inconclusive: 14.7 µM [inhibitor, partial curve, poor fit] | 
10 | O=C(O)c1cccc(Cn2c(Cl)c(/C=N/NC(=O)c3ccco3)sc2=O)c1 |  | inactive: -8.3%
11 | CCc1ccccc1N1C(=O)c2cccc3c(N4CCOCC4)c([N+](=O)[O-])cc(c23)C1=O | inconclusive: 4.15 µM [inhibitor, partial curve, poor fit] | 
12 | CN1CCN(CCC(=O)N2c3ccccc3Sc3ccc(C(F)(F)F)cc32)CC1 | inconclusive: 11.7 µM [inhibitor, single point] and inconclusive: 13.5 µM [inhibitor, single point] | 
13 | Cc1ccc(C)c(OCCCCN2CCNCC2)c1C | inconclusive: 0.0262 µM [inhibitor, full curve, poor fit] | 
14 | CCOc1ccc(-n2c(C)cc(/C=C3/C(=N)N4C(=NC3=O)SN=C4S(C)(=O)=O)c2C)cc1 | inconclusive: 7.38 µM [inhibitor, partial curve, poor fit] | 
15 | Cc1ccc[n+](CC(=O)Nc2cc(C(F)(F)F)ccc2Cl)c1 | inconclusive: 10.4 µM [inhibitor, single point] | 
16 | CC1(C)C(Cl)C(=O)C(C(=O)c2ccccc2)C(=O)C1Cl (centres undefined) |  | inactive: 204%
17 | O=C(c1ccc(Cn2c(=O)[nH]c3ccccc3c2=O)cc1)N1CCN(c2ccccn2)CC1 | inconclusive: 10.4 µM [inhibitor, partial curve] | 
18 | O=C(CN1CCC(NC(=O)c2ccco2)CC1)Nc1ccccc1C(F)(F)F |  | inactive: -20.8%
19 | COc1cc(N=Nc2c(O)c3ccccc3[nH]c2=O)c(OC)cc1N=Nc1ccccc1 | active: 3.29 µM | 
20 | O=C(NC1CC1)C1CCN(S(=O)(=O)c2ccc(Cl)c([N+](=O)[O-])c2)CC1 | inconclusive: 13.1 µM [inhibitor, single point] | 
21 | O=[N+]([O-])c1ccc(S(=O)(=O)NCCc2ccncc2)cc1 | inconclusive: 0.0738 µM [inhibitor, partial curve, poor fit] | 
22 | CC1(C)CC(NC(=O)COc2ccc3c4c(c(=O)oc3c2)CCCC4)CC(C)(C)N1 | inconclusive: 11.7 µM [inhibitor, single point] | 

Row | SMILES | Potency | activity change, negative = inhibition
23 | Cc1cc(=O)oc2cc(OCC(=O)N3CC[C@@]4(O)CCCC[C@H]4C3)c(Cl)cc12 |  | inactive: 4.93%
24 | CC(C)c1ccc(N(CC(=O)NC2CCCC2)C(=O)CCC(=O)Nc2nccs2)cc1 | inconclusive: 13.1 µM [inhibitor, single point] | 
25 | Cn1c(COc2ccc([N+](=O)[O-])cc2)nnc1SCC(=O)NCC1CCCO1 (centres undefined) |  | inactive: 19.9%
26 | CN(C)S(=O)(=O)c1ccc2nnn(O)c2c1 |  | inactive: 20.5%
27 | CC(C)(C)c1ccccc1NC(=S)NCc1ccccc1 | inconclusive: 9.28 µM [inhibitor, partial curve] | 
28 | O=C(CCCN1C(=O)/C(=C/c2cccc(Br)c2)SC1=S)N1CCOCC1 |  | inactive: 15.5%
29 | COc1ccccc1C1C2=C(CCCC2=O)N(CC(=O)O)C2=C1C(=O)CCC2 |  | inactive: -3.37%
30 | CC1c2cc3c(cc2CCN1CC(=O)Nc1ccc(S(=O)(=O)N2CCCC2)cc1)OCCCO3 (centres undefined) | inconclusive: 11.7 µM [inhibitor, partial curve] | 
31 | CC(C)c1ccc(NC(=O)CSc2n[nH]c(=O)n2-c2ccc3c(c2)OCCO3)cc1 | inconclusive: 0.0657 µM [inhibitor, full curve, poor fit] | 
32 | COc1ccc(S(=O)(=O)N2CCOCC2)cc1C(=O)NC1CCCCCC1 |  | inactive: -24.5%
33 | O=C(CCn1nc(-c2ccccc2)c2ccccc2c1=O)N1CCN(c2ccccc2)CC1 | inconclusive: 10.4 µM [inhibitor, single point] | 
34 | Cc1ccc(S(=O)(=O)NC(CC(C)C)C(=O)N2CCN(C/C=C/c3ccccc3)CC2)cc1 (centres undefined) | active: 8.28 µM | 
35 | COc1cccc(-c2cc(C(=O)N3CCCc4ccccc43)no2)c1 | inconclusive: 18.5 µM [inhibitor, single point] | 
36 | CN(CC(=O)Nc1c(Cl)cccc1Cl)C(=O)c1ccc(-n2cncn2)c([N+](=O)[O-])c1 |  | inactive: 5.73%
37 | CCCCc1ccc(N2C(=NC(=O)C3CCCO3)SC3CS(=O)(=O)CC32)cc1 (centres undefined) |  | inactive: 25.7%
38 | Cc1ccc(NC(=O)c2oc3ccc(S(=O)(=O)N4CCOCC4)cc3c2C)c(C)c1 | inconclusive: 4.65 µM [inhibitor, partial curve] | 
39 | CCOC(=O)c1c(C)n(C)c2ccc(O)cc12 |  | inactive: -13%
40 | COc1ccc(-n2c(-c3ccccc3)c[n+]3c2CCC3)cc1 | inconclusive: 1.17 µM [inhibitor, full curve] | 
41 | Cc1cc(C)c2cc(CN(CCO)C(=O)Nc3ccc(F)cc3)c(=O)[nH]c2c1 | inconclusive: 10.4 µM [inhibitor, partial curve, poor fit] | 
42 | O=C(Nc1cccnc1)c1ccc(Cl)c(S(=O)(=O)N2CCc3ccccc32)c1 | active: 2.62 µM | 
43 | O=[N+]([O-])c1cccc(-c2c(-c3ccccc3)ncc3cc(F)ccc23)c1 | inconclusive: 5.86 µM [inhibitor, partial curve] | 
44 | CC1CC(C)CN(C(=O)c2cccc(S(=O)(=O)N3c4ccccc4CC3C)c2)C1 (centres undefined) | inconclusive: 7.38 µM [inhibitor, partial curve] | 

Row | SMILES | Potency | activity change, negative = inhibition
45 | CCCS(=O)(=O)c1nc(S(=O)(=O)c2ccc(C)cc2)c(NCc2ccc3c(c2)OCO3)s1 | inconclusive: 18.5 µM [inhibitor, single point] | 
46 | O=C(Nc1ccc(Oc2cccnc2)cc1)C1CCN(Cc2ccc(F)cc2)CC1 | inconclusive: 11.7 µM [inhibitor, partial curve, poor fit] | 
47 | Cc1ccccc1CN1CCN(CCCc2ccccc2)C(CCO)C1 (centres undefined) | inconclusive: 13.1 µM [inhibitor, single point] | 
48 | CCCN(CCC)c1nc(-c2ccccn2)nc2ccccc12 | active: 0.828 µM | 
49 | O=C(Cn1cc(S(=O)(=O)Cc2cccc([N+](=O)[O-])c2)c2ccccc21)N1CCOCC1 | inconclusive: 0.233 µM [inhibitor, full curve, poor fit] | 
50 | Cc1cc(-c2nnc(-c3ccccc3)c(-c3ccccc3)n2)c(C)o1 | active: 13.1 µM | 
51 | CCN(CC(=O)Nc1c(F)cccc1F)C(=O)/C=C/c1ccc(S(=O)(=O)N2CCCCCC2)cc1 | inconclusive: 11.7 µM [inhibitor, partial curve, poor fit] | 
52 | COC(=O)c1cc(NC(=O)CN(c2ccc(OC)cc2)S(=O)(=O)c2ccc(F)cc2)ccc1Cl | inconclusive: 13.1 µM [inhibitor, single point] | 
53 | CCOc1ccc(N(CC(=O)NC2CCCCC2)C(=O)CCC(=O)Nc2nccs2)cc1 | active: 7.38 µM | 
54 | O=C(CSc1nc2c(cnn2-c2ccccc2)c(=O)[nH]1)N1N=C(c2cccs2)CC1c1ccc(F)cc1 (centres undefined) | inconclusive: 16.5 µM [inhibitor, single point] | 
55 | CCN(CC)S(=O)(=O)c1ccc(N2CCOCC2)c(NC(=O)c2ccccc2)c1 | inconclusive: 18.5 µM [inhibitor, single point] | 
56 | COc1ccc(C[C@@H]2c3cc(OC)c(OC)cc3CC[N@+]2(C)CCC(=O)OCCCCCOC(=O)CC[N@@+]2(C)CCc3cc(OC)c(OC)cc3[C@H]2Cc2ccc(OC)c(OC)c2)cc1OC |  | inactive: -5.29% [at 12.8 µM]
57 | Cc1ccc(CN2CCN(Cc3cn[nH]c3-c3cccc(F)c3)CC2CCO)o1 (centres undefined) | inconclusive: 1.65 µM [inhibitor, full curve] | 
58 | CCC(=O)c1ccc(OCC(O)CNCc2ccc(F)cc2)cc1 (centres undefined) |  | inactive: -6.29%
59 | Cc1cc(NC(=O)CC(F)(F)F)n(-c2ccccc2)n1 |  | inactive: -2.73%
60 | Cc1cccc(NC(=O)CN2CCN(C(=O)c3cnn(Cc4ccccc4)c3)CC2)c1C | inconclusive: 20.8 µM [inhibitor, single point] | 
61 | CCN(Cc1nc2cc(Cl)ccc2c(=O)[nH]1)C(=O)c1cccc(OCc2c(C)noc2C)c1 | inconclusive: 18.5 µM [inhibitor, single point] | 
62 | O=C1c2oc3ccc(Cl)cc3c(=O)c2C(c2ccccn2)N1CCCN1CCOCC1 (centres undefined) | inconclusive: 18.5 µM [inhibitor, single point] | 
63 | Cc1cc(=O)oc2cc(OCC(=O)N3CC(=O)Nc4ccccc43)c(Cl)cc12 | active: 13.1 µM | 
64 | CC(C)c1ccc(C(O)c2cnc(C(C)C)n2C)cc1 (centres undefined) | inconclusive: 18.5 µM [inhibitor, single point] | 
